# Reference: paper PMC4336329 (PLoS ONE, 2015)
# In all, about 310,000 compounds went through this assay and about 14,000 (4.5%) showed an effect of 50% or more. The effect is printed as a negative number. The list shows a part of the results.
# Biological target: human ether-à-go-go-related gene (hERG) potassium channel (human, UniProt Q12809)
# Experiment: primary screen, population patch clamp on CHO cells stably expressing hERG
# 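Also: peak tail current of the secondary pulse compared with the same well before compound.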
# Chain of human ether-à-go-go-related gene (hERG) potassium channel (Q12809 whole entry, looked up): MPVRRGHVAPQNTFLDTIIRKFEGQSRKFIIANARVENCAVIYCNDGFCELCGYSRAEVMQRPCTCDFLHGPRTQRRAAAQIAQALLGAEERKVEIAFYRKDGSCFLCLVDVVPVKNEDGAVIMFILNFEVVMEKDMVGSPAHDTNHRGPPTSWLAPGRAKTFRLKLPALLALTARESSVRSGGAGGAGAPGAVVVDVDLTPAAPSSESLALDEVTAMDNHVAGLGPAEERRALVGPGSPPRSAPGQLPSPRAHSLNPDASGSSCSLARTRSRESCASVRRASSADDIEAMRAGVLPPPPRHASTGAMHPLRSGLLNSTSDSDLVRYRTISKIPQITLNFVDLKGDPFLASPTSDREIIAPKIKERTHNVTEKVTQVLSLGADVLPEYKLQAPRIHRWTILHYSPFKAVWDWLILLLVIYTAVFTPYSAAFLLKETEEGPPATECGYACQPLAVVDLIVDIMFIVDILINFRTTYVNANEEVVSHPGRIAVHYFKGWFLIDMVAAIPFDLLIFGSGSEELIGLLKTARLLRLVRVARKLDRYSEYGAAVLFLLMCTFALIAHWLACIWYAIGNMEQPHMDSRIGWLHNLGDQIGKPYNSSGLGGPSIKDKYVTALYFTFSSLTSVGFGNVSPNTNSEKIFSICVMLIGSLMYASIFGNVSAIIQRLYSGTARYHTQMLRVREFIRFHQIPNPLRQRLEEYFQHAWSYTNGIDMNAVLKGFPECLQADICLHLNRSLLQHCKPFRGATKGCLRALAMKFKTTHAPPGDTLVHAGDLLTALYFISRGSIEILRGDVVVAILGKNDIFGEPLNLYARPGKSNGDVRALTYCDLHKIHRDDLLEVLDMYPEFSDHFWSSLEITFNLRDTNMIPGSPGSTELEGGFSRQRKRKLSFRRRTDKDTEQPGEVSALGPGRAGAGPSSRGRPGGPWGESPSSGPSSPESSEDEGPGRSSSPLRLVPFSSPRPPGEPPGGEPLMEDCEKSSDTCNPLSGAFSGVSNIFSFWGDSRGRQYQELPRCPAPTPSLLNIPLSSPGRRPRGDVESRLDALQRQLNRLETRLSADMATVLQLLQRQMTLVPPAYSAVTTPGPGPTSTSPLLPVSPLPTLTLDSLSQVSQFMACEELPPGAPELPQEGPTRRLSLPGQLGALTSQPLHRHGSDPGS
row,Structure (SMILES),"hERG current change (%, negative = inhibition) at 10uM [%]"
1,CC(=O)C[C@H]1c2ccccc2S(=O)(=O)N1C1CCCC1,14.2
2,O=c1c2[nH]c3ccc(F)cc3c2ncn1CCC1=CCCCC1,12.5
3,CC(=O)NC1C(O)OC(CO)C(O)C1O (stereo not shown),9.32
4,O=S(=O)(NCc1cccs1)c1cccc(S(=O)(=O)N2CCCCC2)c1,-29.6
5,CCN(C/C=C/c1ccccc1OC)Cc1ccccc1,-33.4
6,COc1ccc(C(=O)NCCCN2CCOCC2)cc1,-1.82
7,O=C(Nc1ccc(F)cc1)C1(S(=O)(=O)c2ccc(Cl)cc2)CC1,-46.9
8,CC1CCCC(C)N1CC(O)COCc1ccccc1F.Cl (stereo not shown),13.2
9,CCOC(=O)C1CCN(C(=O)CCc2nc3ccccc3[nH]2)CC1,-9.59
10,CCOC1=NN(c2ncc(C(F)(F)F)cc2Cl)C(=O)/C1=C/N(C)C,12.5
11,CCN(CC)S(=O)(=O)c1ccc(C)c(NC(=O)CNc2cccc(S(=O)(=O)N3CCOCC3)c2)c1,-17.7
12,CCNC(=O)CSc1nnc(-c2cccs2)o1,7.42
13,CCCCNC(=S)Nc1ccc2nc(N3CCN(CC)CC3)cc(C)c2c1,-44.6
14,O=C(Nc1ccc(N2CCCCC2)cc1)c1cc(S(=O)(=O)N2CCOCC2)ccc1F,-9.76
15,C/C(CC(=O)Nc1ccc2c(c1)OCCO2)=N\NC(=O)Cc1ccc(Cl)cc1,11.2
16,Cc1sc(NC(=O)c2cccnc2)nc1-c1ccccc1,32.4
17,Cc1ccsc1C(=O)Nc1cc(C(C)(C)C)nn1-c1ccccc1,-1.14
18,Cc1nn(-c2ccccc2)c(Cl)c1C(=O)NCc1cccs1,-19.4
19,CCOc1ccccc1N(CC(=O)Nc1ccc(OC)c(OC)c1)S(=O)(=O)c1ccccc1,7.36
20,CC(=O)NC1=NN(C(C)=O)C(C)(c2cccnc2)S1 (stereo not shown),30.5

row,Structure (SMILES),"hERG current change (%, negative = inhibition) at 10uM [%]"
1,CCCc1nnc(SCC(=O)Nc2nnc(CC)s2)n1CC1CCCO1 (stereo not shown),2.42
2,COc1ccc(NC(=O)CSc2nnc(Cc3cccs3)n2C)cc1,-0.827
3,COc1cc(N)c(Cl)cc1C(=O)OCC(=O)NC1CCCC1,15.3
4,CC1CCN(C(=O)CSc2ccc(-c3ccc4c(c3)OCCO4)nn2)CC1,1.43
5,CC(=O)NC(C(=O)OCC(=O)N(c1ccccc1)c1ccccc1)C(C)C (stereo not shown),8.03
6,CC1=C(C(=O)Nc2ccccc2C(=O)NC2CCCCC2C)SCCO1 (stereo not shown),-7.39
7,Cc1ccc(S(=O)(=O)N2CCC(C(=O)NCc3ccccc3CN3CCCC3)CC2)cc1C,-68.7
8,COc1cc(/C=C2\SC(=O)N(c3ccc(O)cc3)C2=O)cc(OC)c1OC,-6
9,O=C1c2cccnc2C(=O)N1CNc1ccc(Cl)cc1,51.4
10,CCCn1nnnc1SCC(=O)NCc1ccc2c(c1)OCO2,5.52
11,COc1cc(C(=O)NCCNC(=O)c2cnccn2)cc(OC)c1OC,2.14
12,Cc1nc2c(-c3ccccc3)c(C)nn2c(SCC(N)=O)c1Cc1ccccc1,8
13,Cn1c(C(=O)N2CCC(C(N)=O)CC2)cc2c(=O)n(C)c3ccccc3c21,12.9
14,CCC(CC)c1nnc(NC(=O)c2c(-c3ccccc3)noc2C)s1,-9.78
15,COc1cc(C(=O)N2CCN(c3cccc(C)c3C)CC2)ccc1OCC(=O)N1CCOCC1,-31.3
16,Cc1ccsc1C(=O)NCCc1ccco1,6.59
17,COc1ccccc1N1CCN(C(=O)c2cc3c(=O)n(C)c4ccccc4c3n2C)CC1,-17.3
18,Cc1ccc(S(=O)(=O)N2CCOCC2)cc1N/N=C(\C#N)c1nc2ccccc2[nH]1,12.7
19,COc1ccc(CCNC(=O)CCOc2ccc(C(C)(C)C)cc2)cc1OC,5
20,CCCCn1nc2cc(C(=O)NCc3ccc(C(F)(F)F)cc3C(F)(F)F)ccc2c1OCC,-6.44

row,Structure (SMILES),"hERG current change (%, negative = inhibition) at 10uM [%]"
1,N#CCCS(=O)(=O)c1ccc(N)cc1,5.48
2,O=C(C(=O)N1CCOCC1)c1cn(Cc2ccc(F)cc2)c2ccccc12,-32
3,CCN1CCc2[nH]c3ccccc3c2C1,-3.26
4,CSC1=NCCN1C(=O)C12CC3CC(CC(C3)C1)C2,-5.7
5,COc1ccc(F)cc1S(=O)(=O)Nc1ccncc1,18.4
6,COc1ccc(OCCSc2ncccn2)cc1,-2.08
7,CCOC(=O)c1sc2nc(CC(=O)OC)nc(NCc3ccc(F)cc3)c2c1C,-6.21
8,C=CCn1c(O)c(C(C)=Nc2ccc3c(c2)CCC3)c(=O)[nH]c1=O,-2.18
9,O=C(NCc1cccnc1)c1ccc(NS(=O)(=O)c2ccc(F)cc2)cc1,8.41
10,Cc1c(NC(=O)/C(C#N)=C/c2ccccc2)c(=O)n(-c2ccccc2)n1C,-0.445
11,Cc1cc(C(=O)NNC(=O)CCCOc2ccccc2)c(C)o1,0.675
12,COC(=O)c1[nH]c2ccc(Cl)cc2c1NC(=O)CCN1CCN(C2CCCCC2)CC1,-80
13,CCN1C(=O)C(CC(=O)Nc2ccc(OC)cc2)N(Cc2ccc3c(c2)OCO3)C1=S (stereo not shown),-17
14,Cc1nc(NC(=O)c2ccccc2)sc1C1(C)CC(c2ccccc2F)=NO1 (stereo not shown),3.58
15,CN(C)c1ccc(C(=O)C(=O)c2ccccc2)cc1,5.8
16,O=C1CCc2cc(S(=O)(=O)NC(C(=O)NCc3cccnc3)c3ccccc3)ccc2N1 (stereo not shown),16.2
17,Cc1ccccc1C(=O)NC(=S)NCc1ccccc1,6.13
18,Cc1ccc2[nH]c3c(c2c1)CN(C(=O)CN1CCCc2ccccc21)CC3,0.0121
